# The supplement of paper PMC8728848
# This is one part of the list.
# B1: CPA (Cicer arietinum) (protein)
# chain: MAFSYLNLVLVTLTTLFFLQTTKVKSQKSVSFHITNFTISRPSITLQGTAEFLPNVLLLNDIEHPVFVVGRALYSKPITLWNNKTGKVASFVTSFTFDVQDLKKTVPGHGLVFFLAPSGSEIPFSSDGGNLGVVDGKNAFNRFVGVEFDNFVNSWDPKYSHVGINVNSLISTKTVKWNRVSGELVKVSIVYDSVSTTLTVIVTYKNGQISILSQLVDLKAVLPDTVNIGFSASTTLVSPRQLHNIHSWSFTSTFET
# What was measured:
# Test in all cases: glycan array binding signal (z-score within array); higher = stronger binding
# Conditions in all cases: glycan notation: IUPAC condensed, linker removed
# [1] = target: Gal(b1-4)GlcNAc(b1-3)Gal(b1-4)GlcNAc(b1-3)Gal(b1-4)GlcNAc(b1-3)Gal(b1-4)GlcNAc(b1-2)[Gal(b1-4)GlcNAc(b1-3)Gal(b1-4)GlcNAc(b1-3)Gal(b1-4)GlcNAc(b1-3)Gal(b1-4)GlcNAc(b1-6)]Man(a1-6)[Gal(b1-4)GlcNAc(b1-3)Gal(b1-4)GlcNAc(b1-3)Gal(b1-4)GlcNAc(b1-3)Gal(b1-4)GlcNAc(b1-2)Man(a1-3)]Man(b1-4)GlcNAc(b1-4)[Fuc(a1-6)]GlcNAc
# How it was run: (§1)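 Negative Z-scores can be read as non-binding. The Z-score is calculated within each array and then averaged across arrays of one protein sequence at different concentrations or buffers and across linkers. Arrays, 3228 in all, were curated from the Consortium for Functional Glycomics database and kept only where the protein sequence was available.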
# [2] = target: Gal(b1-4)GlcNAc(b1-3)Gal(b1-4)GlcNAc(b1-3)Gal(b1-4)GlcNAc(b1-3)Gal(b1-4)GlcNAc(b1-3)Gal(b1-4)GlcNAc(b1-2)Man(a1-3)[Gal(b1-4)GlcNAc(b1-3)Gal(b1-4)GlcNAc(b1-3)Gal(b1-4)GlcNAc(b1-3)Gal(b1-4)GlcNAc(b1-3)Gal(b1-4)GlcNAc(b1-2)Man(a1-6)]Man(b1-4)GlcNAc(b1-4)GlcNAc
# How it was run: as §1
# [3] = target: Gal(b1-4)GlcNAc(b1-3)Gal(b1-4)GlcNAc(b1-3)Gal(b1-4)GlcNAc(b1-3)Gal(b1-4)GlcNAc(b1-3)Gal(b1-4)GlcNAc(b1-2)Man(a1-3)[Gal(b1-4)GlcNAc(b1-3)Gal(b1-4)GlcNAc(b1-3)Gal(b1-4)GlcNAc(b1-3)Gal(b1-4)GlcNAc(b1-3)Gal(b1-4)GlcNAc(b1-2)Man(a1-6)]Man(b1-4)GlcNAc(b1-4)[Fuc(a1-6)]GlcNAc
# How it was run: as §1
# [4] = target: Gal(b1-4)GlcNAc(b1-3)Gal(b1-4)GlcNAc(b1-3)Gal(b1-4)GlcNAc(b1-3)Gal(b1-4)GlcNAc(b1-3)Gal(b1-4)GlcNAc(b1-2)[Gal(b1-4)GlcNAc(b1-3)Gal(b1-4)GlcNAc(b1-3)Gal(b1-4)GlcNAc(b1-3)Gal(b1-4)GlcNAc(b1-3)Gal(b1-4)GlcNAc(b1-6)]Man(a1-6)[Gal(b1-4)GlcNAc(b1-3)Gal(b1-4)GlcNAc(b1-3)Gal(b1-4)GlcNAc(b1-3)Gal(b1-4)GlcNAc(b1-3)Gal(b1-4)GlcNAc(b1-2)Man(a1-3)]Man(b1-4)GlcNAc(b1-4)[Fuc(a1-6)]GlcNAc
# How it was run: as §1
# [5] = target: Gal(b1-4)GlcNAc(b1-3)Gal(b1-4)GlcNAc(b1-3)Gal(b1-4)GlcNAc(b1-3)Gal(b1-4)GlcNAc(b1-3)Gal(b1-4)GlcNAc(b1-3)Gal(b1-4)GlcNAc(b1-2)Man(a1-3)[Gal(b1-4)GlcNAc(b1-3)Gal(b1-4)GlcNAc(b1-3)Gal(b1-4)GlcNAc(b1-3)Gal(b1-4)GlcNAc(b1-3)Gal(b1-4)GlcNAc(b1-3)Gal(b1-4)GlcNAc(b1-2)Man(a1-6)]Man(b1-4)GlcNAc(b1-4)GlcNAc
# How it was run: as §1
# [6] = target: Gal(b1-4)GlcNAc(b1-3)Gal(b1-4)GlcNAc(b1-3)GalNAc
# How it was run: as §1
# [7] = target: Gal(b1-4)GlcNAc(b1-3)Gal(b1-4)GlcNAc(b1-3)[Gal(b1-4)GlcNAc(b1-3)Gal(b1-4)GlcNAc(b1-6)]GalNAc
# How it was run: as §1
# [8] = target: Gal(b1-4)GlcNAc(b1-3)Gal(b1-4)GlcNAc(b1-6)[Gal(b1-3)]GalNAc
# How it was run: as §1
# [9] = target: Gal(b1-4)GlcNAc(b1-3)Gal(b1-4)[Fuc(a1-3)]GlcNAc(b1-3)Gal(b1-4)[Fuc(a1-3)]GlcNAc
# How it was run: as §1
# [10] = target: Gal(b1-4)GlcNAc(b1-3)GalNAc
# How it was run: as §1
# [11] = target: Gal(b1-4)GlcNAc(b1-3)[Fuc(a1-3)GlcNAc(b1-6)]Gal(b1-4)Glc
# How it was run: as §1
# [12] = target: Gal(b1-4)GlcNAc(b1-3)[Gal(b1-4)GlcNAc(b1-6)]Gal(b1-4)GlcNAc
# How it was run: as §1
# [13] = target: Gal(b1-4)GlcNAc(b1-3)[GlcNAc(b1-6)]Gal(b1-4)GlcNAc
# How it was run: as §1
# [14] = target: Gal(b1-4)GlcNAc(b1-6)Gal(b1-4)GlcNAc
# How it was run: as §1
# [15] = target: Gal(b1-4)GlcNAc(b1-6)GalNAc
# How it was run: as §1
# [16] = target: Gal(b1-4)GlcNAc(b1-6)[Gal(b1-3)]GalNAc
# How it was run: as §1
# [17] = target: Gal(b1-4)GlcNAc(b1-6)[Gal(b1-4)GlcNAc(b1-3)]GalNAc
# How it was run: as §1
# Gal(b1-4)GlcNAc6P = target: Gal(b1-4)GlcNAc6P
# How it was run: as §1
# Gal(b1-6)Gal = target: Gal(b1-6)Gal
# How it was run: as §1
# Gal3S(b1-3)GalNAc = target: Gal3S(b1-3)GalNAc
# How it was run: as §1
# Gal3S(b1-3)GlcNAc = target: Gal3S(b1-3)GlcNAc
# How it was run: as §1
# [18] = target: Gal3S(b1-3)[Fuc(a1-4)]GlcNAc
# How it was run: as §1
# Gal3S(b1-4)Glc = target: Gal3S(b1-4)Glc
# How it was run: as §1
# Gal3S(b1-4)Glc6S = target: Gal3S(b1-4)Glc6S
# How it was run: as §1
# Gal3S(b1-4)GlcNAc = target: Gal3S(b1-4)GlcNAc
# How it was run: as §1
# [19] = target: Gal3S(b1-4)[Fuc(a1-3)]Glc6S
# How it was run: as §1
# [20] = target: Gal3S(b1-4)[Fuc(a1-3)]GlcNAc
# How it was run: as §1
# [21] = target: Gal3S(b1-4)[Fuc(a1-3)]GlcNAc6S
# How it was run: as §1
# Gal3S4S(b1-4)GlcNAc = target: Gal3S4S(b1-4)GlcNAc
# How it was run: as §1
# Gal3S6S(b1-4)GlcNAc = target: Gal3S6S(b1-4)GlcNAc
# How it was run: as §1
# Gal3S6S(b1-4)GlcNAc6S = target: Gal3S6S(b1-4)GlcNAc6S
# How it was run: as §1
# Gal4S(b1-4)GlcNAc = target: Gal4S(b1-4)GlcNAc
# How it was run: as §1
# Gal4S6S(b1-4)GlcNAc = target: Gal4S6S(b1-4)GlcNAc
# How it was run: as §1
# Gal6P(b1-4)GlcNAc = target: Gal6P(b1-4)GlcNAc
# How it was run: as §1
# Gal6S(b1-3)GlcNAc = target: Gal6S(b1-3)GlcNAc
# How it was run: as §1
# Gal6S(b1-3)GlcNAc6S = target: Gal6S(b1-3)GlcNAc6S
# How it was run: as §1
# Gal6S(b1-4)Glc = target: Gal6S(b1-4)Glc
# How it was run: as §1
# Gal6S(b1-4)Glc6S = target: Gal6S(b1-4)Glc6S
# How it was run: as §1
binder,measurement,setting,value
B1,glycan array binding signal (z-score),[1],-0.066
same,glycan array binding signal (z-score),[2],2.34
same,glycan array binding signal (z-score),[3],1.38
same,glycan array binding signal (z-score),[4],1.58
same,glycan array binding signal (z-score),[5],3.7
same,glycan array binding signal (z-score),[6],3.36
same,glycan array binding signal (z-score),[7],2.14
same,glycan array binding signal (z-score),[8],1.7
same,glycan array binding signal (z-score),[9],-0.289
same,glycan array binding signal (z-score),[10],-0.24
same,glycan array binding signal (z-score),[11],-0.234
same,glycan array binding signal (z-score),[12],-0.064
same,glycan array binding signal (z-score),[13],-0.304
same,glycan array binding signal (z-score),[14],-0.157
same,glycan array binding signal (z-score),[15],1.23
same,glycan array binding signal (z-score),[16],-0.371
same,glycan array binding signal (z-score),[17],3.6
same,glycan array binding signal (z-score),Gal(b1-4)GlcNAc6P,5.14
same,glycan array binding signal (z-score),Gal(b1-6)Gal,0.108
same,glycan array binding signal (z-score),Gal3S(b1-3)GalNAc,-0.183
same,glycan array binding signal (z-score),Gal3S(b1-3)GlcNAc,-0.472
same,glycan array binding signal (z-score),[18],-0.376
same,glycan array binding signal (z-score),Gal3S(b1-4)Glc,-0.53
same,glycan array binding signal (z-score),Gal3S(b1-4)Glc6S,-0.415
same,glycan array binding signal (z-score),Gal3S(b1-4)GlcNAc,-0.634
same,glycan array binding signal (z-score),[19],0.2
same,glycan array binding signal (z-score),[20],-0.769
same,glycan array binding signal (z-score),[21],-0.546
same,glycan array binding signal (z-score),Gal3S4S(b1-4)GlcNAc,-0.626
same,glycan array binding signal (z-score),Gal3S6S(b1-4)GlcNAc,-0.404
same,glycan array binding signal (z-score),Gal3S6S(b1-4)GlcNAc6S,-0.445
same,glycan array binding signal (z-score),Gal4S(b1-4)GlcNAc,-0.288
same,glycan array binding signal (z-score),Gal4S6S(b1-4)GlcNAc,-0.408
same,glycan array binding signal (z-score),Gal6P(b1-4)GlcNAc,-0.744
same,glycan array binding signal (z-score),Gal6S(b1-3)GlcNAc,-0.572
same,glycan array binding signal (z-score),Gal6S(b1-3)GlcNAc6S,-0.633
same,glycan array binding signal (z-score),Gal6S(b1-4)Glc,0.138
same,glycan array binding signal (z-score),Gal6S(b1-4)Glc6S,0.188
